According to the supplement of paper PMC8512760:
Where a name gives a salt, the structure may show the parent alone. This is one part of the list. Many values rest on one well or one pass, so single values are uncertain.

Assays:
Experiment in all cases: cell viability relative to vehicle (% of vehicle); basal-like triple-negative breast cancer lines; higher = less cytotoxic
Details in all cases: 10 µM; 72 h
[1] = system: HCC-1143
[2] = system: HCC-1187
[3] = system: MDA-468
[4] = system: SUM-149
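Further: stably firefly luciferase-GFP labeled cells in 96-well plates, viability read as luciferase photon flux after d-luciferin addition, treated wells normalized to vehicle wells, single-dose high-throughput screen.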

Compound	cell viability [1]	cell viability [2]	cell viability [3]	cell viability [4]
CN(CC=CC#CC(C)(C)C)Cc1cccc2ccccc12 [Terbinafine]	82.3	103	122	115
CC#CCn1c(N2CCCC(N)C2)nc2c1c(=O)n(Cc1nc(C)c3ccccc3n1)c(=O)n2C (stereo not drawn) [Linagliptin (BI-1356)]	102	97.1	85	124
O=C(O)CO.[NH2-].[NH2-].[Pt+2] [Nedaplatin]	56.2	32.2	26.9	33
COC(=O)Nc1nc2ccc(S(=O)c3ccccc3)cc2[nH]1 (stereo not drawn) [Oxfendazole]	87.2	72.7	89.9	107
O[C@@H]1CO[C@H]2[C@@H]1OC[C@@H]2O [Isosorbide]	69.5	85.5	112	114
C#CCC(Cc1cnc2nc(N)nc(N)c2n1)c1ccc(C(=O)NC(CCC(=O)O)C(=O)O)cc1 (stereo not drawn) [Pralatrexate]	103	60.5	58.1	120
COS(=O)(=O)[O-].C[N+]1(C)CCC(=C(c2ccccc2)c2ccccc2)CC1 [Diphemanil Methylsulfate]	85.1	96.8	103	96.8
CC(C)C1=CC(=C2NNC(=O)N2c2ccc3c(ccn3C)c2)C(=O)C=C1O [Ganetespib (STA-9090)]	51.1	72.9	45.8	46.5
Cl.NCCS [Cysteamine HCl]	72	86.5	97.3	104
CNCc1ccc(-c2[nH]c3cc(F)cc4c3c2CCNC4=O)cc1.O=P(O)(O)O	86.2	76.8	88	195
Cc1cc2c(s1)=Nc1ccccc1NC=2N1CCN(C)CC1 [Olanzapine]	72.4	85	107	93
COC(=O)NC(C(=O)NC(Cc1ccccc1)C(O)CN(Cc1ccc(-c2ccccn2)cc1)NC(=O)C(NC(=O)OC)C(C)(C)C)C(C)(C)C (stereo not drawn) [Atazanavir]	82.4	94	98.9	114
CCC1=CC2CN(C1)Cc1c([nH]c3ccccc13)C(C(=O)OC)(c1cc3c(cc1OC)N(C)C1C(O)(C(=O)OC)C(OC(C)=O)C4(CC)C=CCN5CCC31C54)C2 (stereo not drawn) [Vinorelbine]	62.8	50	110	77.9
NCCCC(O)(P(=O)([O-])O)P(=O)(O)O.[Na+] [Alendronate sodium]	69	97.9	87.6	86.8
O=C1OC(C(O)CO)C(O)=C1O (stereo not drawn) [Vitamin C]	95	113	105	105
CC(C)COc1ccc(CNC(=O)N(Cc2ccc(F)cc2)C2CCN(C)CC2)cc1 [Pimavanserin]	78	41.6	58.6	52.2
CCOC(=O)CC(=O)N1CCSC1COc1ccccc1OC (stereo not drawn) [Moguisteine]	85.4	93.9	110	109
COC(=O)C(Cc1ccccc1)NC(=O)C(N)CC(=O)O (stereo not drawn) [Aspartame]	103	108	120	123
CC1=NS(=O)(=O)c2cc(Cl)ccc2N1 [Diazoxide]	79.3	92	121	107
O=S(=O)([O-])CCS.[Na+] [Mesna]	106	83.9	112	107
COC1=C(OC)C(=O)C(CCCCCCCCCCO)=C(C)C1=O [Idebenone]	72.3	93.7	107	103
CN(C)CCC(c1ccc(Cl)cc1)c1ccccn1.O=C(O)C=CC(=O)O (stereo not drawn) [Chlorpheniramine Maleate]	82	95.7	98.6	97.2
O=C(O)CCCN1CCC(OC(c2ccc(Cl)cc2)c2ccccn2)CC1.O=S(=O)(O)c1ccccc1 (stereo not drawn) [Bepotastine Besilate]	78.9	98.6	97.8	111
COC(=O)NC(C(=O)NC(Cc1ccccc1)C(O)CN(Cc1ccc(-c2ccccn2)cc1)NC(=O)C(NC(=O)OC)C(C)(C)C)C(C)(C)C.O=S(=O)(O)O (stereo not drawn)	108	59.4	89	116
CC(CN1CC(=O)NC(=O)C1)N1CC(=O)NC(=O)C1 (stereo not drawn) [Dexrazoxane]	73	87	115	111
COc1ccccc1OCC(O)CO (stereo not drawn) [Guaifensin]	89	76.8	99.5	107

Compound	cell viability [1]	cell viability [2]	cell viability [3]	cell viability [4]
CCCCc1oc2ccccc2c1C(=O)c1cc(I)c(OCCN(CC)CC)c(I)c1.Cl [Amiodarone HCl]	84.2	88.2	98.4	121
CCn1cc(C(=O)O)c(=O)c2cc(F)c(N3CCNCC3)cc21 [Norfloxacin]	122	115	111	101
CC(CCC(=O)O)C1CCC2C3CCC4CC(O)CCC4(C)C3CC(O)C12C (stereo not drawn) [Deoxycholic acid]	77.3	81.5	115	108
CCOc1cc(CC(=O)NC(CC(C)C)c2ccccc2N2CCCCC2)ccc1C(=O)O (stereo not drawn) [Repaglinide]	76.3	105	91.5	121
CCN1CCN(Cc2ccc(Nc3ncc(F)c(-c4cc(F)c5nc(C)n(C(C)C)c5c4)n3)nc2)CC1.CS(=O)(=O)O	71.4	71.7	83.2	116
Cc1nc2n(c(=O)c1CCN1CCC(c3noc4cc(F)ccc34)CC1)CCCC2 [Risperidone]	77.3	102	123	117
COC(=O)N(C)c1c(N)nc(-c2nn(Cc3ccccc3F)c3ncccc23)nc1N [Riociguat]	107	103	80.3	115
COc1ccc(C2(C#N)CCC(C(=O)O)CC2)cc1OC1CCCC1 (stereo not drawn) [Cilomilast]	72.3	99.7	114	119
CNCCC(Oc1ccccc1C)c1ccccc1.Cl (stereo not drawn) [Atomoxetine HCl]	109	121	111	117
O=C(O)c1cc(-c2ccccc2)nc2ccccc12 [Cinchophen]	114	126	139	103
COc1ccc2nc(S(=O)Cc3ncc(C)c(OC)c3C)[nH]c2c1 (stereo not drawn) [Omeprazole]	114	93.2	57	115
Cc1cccc(Nc2ccncc2S(=O)(=O)NC(=O)NC(C)C)c1 [Torsemide]	147	112	85	122
NC(N)=Nc1nc(CSCCC(N)=NS(N)(=O)=O)cs1 [Famotidine]	84.3	95.3	97.8	106
Cl.O=C(c1ccc(OCCN2CCCCC2)cc1)c1c(-c2ccc(O)cc2)sc2cc(O)ccc12 [Raloxifene HCl]	107	156	139	147
O=C1Cc2cc(CCN3CCN(c4nsc5ccccc45)CC3)c(Cl)cc2N1 [Ziprasidone]	105	99.6	103	110
O=C([O-])c1cc(=O)c2c(OCC(O)COc3cccc4oc(C(=O)[O-])cc(=O)c34)cccc2o1.[Na+].[Na+] [Cromolyn sodium]	74.5	83.9	100	106
COc1ccc(-c2ccc3cc(C(=O)O)ccc3c2)cc1C12CC3CC(CC(C3)C1)C2 [Adapalene]	114	84.3	104	97.8
CN[C@H](CC(C)C)C(=O)N[C@H]1C(=O)N[C@@H](CC(N)=O)C(=O)N[C@H]2C(=O)N[C@H]3C(=O)N[C@H](C(=O)N[C@H](C(=O)O)c4cc(O)cc(O)c4-c4cc3ccc4O)[C@H](O)c3ccc(c(Cl)c3)Oc3cc2cc(c3O[C@@H]2O[C@H](CO)[C@@H](O)[C@H](O)[C@H]2O[C@H]2C[C@](C)(N)[C@H](O)[C@H](C)O2)Oc2ccc(cc2Cl)[C@H]1O [Vancomycin hydrochloride]	128	93.3	86	101
Cc1ncc([N+](=O)[O-])n1CCO [Metronidazole]	73.6	89.5	102	102
CC1COc2c(N3CCN(C)CC3)c(F)cc3c(=O)c(C(=O)O)cn1c23 (stereo not drawn) [Ofloxacin]	68	79.9	101	96.3
O=P(O)(O)C(O)(Cn1ccnc1)P(=O)(O)O [Zoledronic Acid]	90.7	98.7	97	79.4
CC(C)CN(CC(O)C(Cc1ccccc1)NC(=O)OC1CCOC1)S(=O)(=O)c1ccc(N)cc1 (stereo not drawn) [Amprenavir (agenerase)]	84.9	105	88.3	95.5
Cc1cccc(C)c1OCC(=O)NC(Cc1ccccc1)C(O)CC(Cc1ccccc1)NC(=O)C(C(C)C)N1CCCNC1=O (stereo not drawn) [Lopinavir]	79.4	108	93.5	97.4
CCN(CC)C(=O)C(C#N)=Cc1cc(O)c(O)c([N+](=O)[O-])c1 [Entacapone]	71.3	90.9	113	88
CCN(CC)CCCC(C)Nc1ccnc2cc(Cl)ccc12.O=P(O)(O)O.O=P(O)(O)O (stereo not drawn) [Chloroquine diphosphate]	70.6	83	102	92.2
Cn1c(=O)cc(N2CCCC(N)C2)n(Cc2cc(F)ccc2C#N)c1=O (stereo not drawn) [Trelagliptin]	107	101	92.2	113
